Test results published in the supplement of paper PMC9334596.
“And” between values parts separate entries of the source, which are not always exact repeats. Equal entries are not always repeated. In all, about 5,300 compounds were measured (“PER2::LUC luminescence relative to vehicle control”: median about 0.96, highest 2% from about 1.3 on). The list shows a part of the results.

System: mPer2Luc MEF
Assay: PER2::LUC luminescence relative to vehicle control (fold of vehicle); higher = higher PER2::LUC reporter signal
Details: 10 µM
In short: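 In 384-well plates, ~3000 mPer2Luc reporter mouse embryonic fibroblasts per well were cultured in DMEM with 10% FBS at 37 °C and 5% CO2 for 48 h before compounds from commercial libraries were added at 10 μM. ONE-Glo luciferase readings were taken 24 h and 30 h after treatment. Each value is PER2::LUC luminescence given as fold of vehicle control.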

SMILES: CN1CC[C@@H]2CN3CCc4cccc(c43)[C@@H]2C1
- PER2::LUC luminescence (time after treatment 24 h): 1
- PER2::LUC luminescence (time after treatment 30 h): 0.913

SMILES: O=C(O)C[S@@+]([O-])C(c1ccccc1)c1ccccc1
- PER2::LUC luminescence (time after treatment 24 h): 0.953
- PER2::LUC luminescence (time after treatment 30 h): 0.985

SMILES: C[N+]1(C)[C@@H]2CC(OC(=O)[C@H](CO)c3ccccc3)C[C@H]1[C@@H]1O[C@@H]12 (single isomer, unassigned; (-))
- PER2::LUC luminescence (time after treatment 24 h): 0.886
- PER2::LUC luminescence (time after treatment 30 h): 0.736

SMILES: NC(CCP(=O)(O)O)C(=O)O (configuration not stated)
- PER2::LUC luminescence (time after treatment 24 h): 0.982
- PER2::LUC luminescence (time after treatment 30 h): 0.979

SMILES: C/C(=C/C=C/[C@@H](C)C(=O)O)[C@H]1CN[C@H](C(=O)O)[C@H]1CC(=O)O
- PER2::LUC luminescence (time after treatment 24 h): 1.07
- PER2::LUC luminescence (time after treatment 30 h): 0.96

SMILES: CC[C@@H](CO)NC(=O)[C@@H]1C=C2c3cccc4[nH]cc(c34)C[C@H]2N(C)C1
- PER2::LUC luminescence (time after treatment 24 h): 0.926 and 0.546
- PER2::LUC luminescence (time after treatment 30 h): 0.958 and 0.857

SMILES: CCC1(C2=NCCN2)Cc2ccccc2O1 (configuration not stated)
- PER2::LUC luminescence (time after treatment 24 h): 0.865 and 0.453
- PER2::LUC luminescence (time after treatment 30 h): 0.886 and 0.69

SMILES: CCOC(=O)c1ncn2c1[C@@H]1CCCN1C(=O)c1cc(OC)ccc1-2
- PER2::LUC luminescence (time after treatment 24 h): 1.05
- PER2::LUC luminescence (time after treatment 30 h): 0.898

SMILES: NC(N)=Nc1ccc2[nH]c3c(c2c1)C[C@@]1(O)[C@H]2Cc4ccc(O)c5c4[C@@]1(CCN2CC1CC1)[C@H]3O5
- PER2::LUC luminescence (time after treatment 24 h): 1.11
- PER2::LUC luminescence (time after treatment 30 h): 0.99

SMILES: Cc1o[nH]c(=O)c1CC(N)C(=O)O (racemic)
- PER2::LUC luminescence (time after treatment 24 h): 0.875
- PER2::LUC luminescence (time after treatment 30 h): 0.984

SMILES: CCCCOC(=O)c1ccccc1C(=O)OCCCC
- PER2::LUC luminescence (time after treatment 24 h): 1.05
- PER2::LUC luminescence (time after treatment 30 h): 0.983

SMILES: CN1[C@@H]2CC[C@H]1C[C@@H](OC(=O)c1cc(Cl)cc(Cl)c1)C2
- PER2::LUC luminescence (time after treatment 24 h): 0.973 and 0.802
- PER2::LUC luminescence (time after treatment 30 h): 0.962 and 0.818

SMILES: CNCCc1cnc[nH]1
- PER2::LUC luminescence (time after treatment 24 h): 1
- PER2::LUC luminescence (time after treatment 30 h): 1.05

SMILES: O=C(O)C(Cl)Cl
- PER2::LUC luminescence (time after treatment 24 h): 0.978
- PER2::LUC luminescence (time after treatment 30 h): 0.974

SMILES: CC(C)(C)c1cc(C=C(C#N)C#N)cc(C(C)(C)C)c1O
- PER2::LUC luminescence (time after treatment 24 h): 0.932
- PER2::LUC luminescence (time after treatment 30 h): 0.953

SMILES: O=C(O)c1nn(Cc2ccc(Cl)cc2Cl)c2ccccc12
- PER2::LUC luminescence (time after treatment 24 h): 0.789
- PER2::LUC luminescence (time after treatment 30 h): 0.869

SMILES: C[N+]12CC[C@@]34c5ccccc5N5C(=O)C[C@@H]6OCC=C(C1)[C@H](C[C@@H]32)[C@@H]6[C@H]54 (some centres not stated)
- PER2::LUC luminescence (time after treatment 24 h): 1.07
- PER2::LUC luminescence (time after treatment 30 h): 0.957

SMILES: COc1ccc2c(c1OC)C(=O)O[C@@H]2[C@H]1c2cc3c(cc2CCN1C)OCO3
- PER2::LUC luminescence (time after treatment 24 h): 0.924
- PER2::LUC luminescence (time after treatment 30 h): 0.94

SMILES: Cc1cc(C(C#N)c2ccc(Cl)cc2)c(Cl)cc1NC(=O)c1cc(I)cc(I)c1O (configuration not stated)
- PER2::LUC luminescence (time after treatment 24 h): 0.834
- PER2::LUC luminescence (time after treatment 30 h): 0.753

SMILES: O=[N+]([O-])c1ccc(O[C@@H]2O[C@H](CO)[C@@H](O)[C@H](O)[C@H]2F)c([N+](=O)[O-])c1
- PER2::LUC luminescence (time after treatment 24 h): 0.895
- PER2::LUC luminescence (time after treatment 30 h): 0.942

SMILES: CCOC(=O)Nc1ccc(NCc2ccc(F)cc2)cc1N
- PER2::LUC luminescence (time after treatment 24 h): 1.07 and 1.15
- PER2::LUC luminescence (time after treatment 30 h): 0.94 and 1.03

SMILES: C[C@@H]1C[C@@H]([C@H](O)CC2CC(=O)NC(=O)C2)C(=O)[C@@H](C)C1
- PER2::LUC luminescence (time after treatment 24 h): 0.248
- PER2::LUC luminescence (time after treatment 30 h): 0.245

SMILES: COc1cc2c(cc1O)CCN[C@@H]2C
- PER2::LUC luminescence (time after treatment 24 h): 0.888
- PER2::LUC luminescence (time after treatment 30 h): 0.986

SMILES: c1ccc2c(c1)OCC(C1=NCCN1)O2 (configuration not stated)
- PER2::LUC luminescence (time after treatment 24 h): 0.826 and 0.725
- PER2::LUC luminescence (time after treatment 30 h): 0.8 and 0.67

SMILES: COc1cc2c(c3oc4cccc(O)c4c(=O)c13)[C@@H]1C=CO[C@@H]1O2
- PER2::LUC luminescence (time after treatment 24 h): 1.04
- PER2::LUC luminescence (time after treatment 30 h): 0.886

SMILES: c1ccc(C2CNCc3ccccc32)cc1 (configuration not stated)
- PER2::LUC luminescence (time after treatment 24 h): 0.902
- PER2::LUC luminescence (time after treatment 30 h): 0.849

SMILES: COc1ccc(CC2NCCc3cc(OC)c(OC)cc32)cc1OC (configuration not stated)
- PER2::LUC luminescence (time after treatment 24 h): 1.12
- PER2::LUC luminescence (time after treatment 30 h): 1.01

SMILES: NC(C(=O)O)c1nn[nH]n1 (racemic)
- PER2::LUC luminescence (time after treatment 24 h): 0.996
- PER2::LUC luminescence (time after treatment 30 h): 1

SMILES: CCCN(CCC)[C@H]1CCc2c(F)ccc(O)c2C1
- PER2::LUC luminescence (time after treatment 24 h): 1.04
- PER2::LUC luminescence (time after treatment 30 h): 0.935

SMILES: c1ccc([C@@H]2C[C@H]2NC2CCNCC2)cc1
- PER2::LUC luminescence (time after treatment 24 h): 1
- PER2::LUC luminescence (time after treatment 30 h): 0.796

SMILES: C[C@]12CC[C@@H](O)C[C@@H]1CC[C@@H]1[C@@H]2CC[C@]2(C)[C@@H](C(=O)CO)CC[C@@H]12
- PER2::LUC luminescence (time after treatment 24 h): 1.26
- PER2::LUC luminescence (time after treatment 30 h): 1.07

SMILES: CC1=C2C(=CO[C@H](C)[C@H]2C)C(O)=C(C(=O)O)C1=O
- PER2::LUC luminescence (time after treatment 24 h): 0.923
- PER2::LUC luminescence (time after treatment 30 h): 0.903

SMILES: CCC1(O)C(=O)OCc2c1cc1n(c2=O)Cc2cc3ccccc3nc2-1 (single isomer, unassigned; (+))
- PER2::LUC luminescence (time after treatment 24 h): 0.598
- PER2::LUC luminescence (time after treatment 30 h): 0.458

SMILES: CCCN(CCC)C1CCc2cccc(O)c2C1 (racemic)
- PER2::LUC luminescence (time after treatment 24 h): 0.967
- PER2::LUC luminescence (time after treatment 30 h): 0.984

SMILES: CC1C=CC=CCCC=CC=CC=CC=CC(OC2OC(C)C(O)C(N)C2O)CC2OC(O)(CC(O)C(O)CCC(O)CC(O)CC(O)CC(=O)OC(C)C(C)C1O)CC(O)C2C(=O)O (configuration not stated)
- PER2::LUC luminescence (time after treatment 24 h): 0.81
- PER2::LUC luminescence (time after treatment 30 h): 0.956

SMILES: COC1=CC(=O)O[C@@H](/C=C/c2ccc3c(c2)OCO3)C1
- PER2::LUC luminescence (time after treatment 24 h): 0.149
- PER2::LUC luminescence (time after treatment 30 h): 0.152

SMILES: C[C@@H]1C[C@H](O)[C@@]2(O)[C@]13CC(=O)OC[C@@]2(C)[C@@](C)(O)C(=O)C3
- PER2::LUC luminescence (time after treatment 24 h): 0.858
- PER2::LUC luminescence (time after treatment 30 h): 0.899

SMILES: CC(=O)O[C@H]1CC[C@@]2(C)[C@H](CC[C@@H]3[C@@H]2CC[C@]2(C)[C@@H](C4=CC(=O)OC4)[C@@H](OC(C)=O)C[C@]32O)C1
- PER2::LUC luminescence (time after treatment 24 h): 0.717
- PER2::LUC luminescence (time after treatment 30 h): 0.748

SMILES: CC(N)C(O)c1ccc(O)c(O)c1 (single isomer, unassigned; (-))
- PER2::LUC luminescence (time after treatment 24 h): 0.954
- PER2::LUC luminescence (time after treatment 30 h): 0.944

SMILES: CCN(CC)C(=O)N[C@H]1C[C@@H]2c3cccc4[nH]cc(c34)C[C@H]2N(C)C1
- PER2::LUC luminescence (time after treatment 24 h): 0.914
- PER2::LUC luminescence (time after treatment 30 h): 0.809

SMILES: Oc1ccc2c3c1O[C@H]1c4c(c5ccccc5n4Cc4ccccc4)C[C@@]4(O)[C@@H](C2)N(CC2CC2)CC[C@]314
- PER2::LUC luminescence (time after treatment 24 h): 0.508
- PER2::LUC luminescence (time after treatment 30 h): 0.516

SMILES: CC[C@@]1([C@H]2O[C@H]([C@H]3O[C@@](O)(CO)[C@H](C)C[C@@H]3C)C[C@H]2C)CC[C@H]([C@@]2(C)CC[C@]3(C[C@H](O)[C@@H](C)[C@@H]([C@H](C)[C@H](OC)[C@@H](C)C(=O)O)O3)O2)O1
- PER2::LUC luminescence (time after treatment 24 h): 0.239
- PER2::LUC luminescence (time after treatment 30 h): 0.183

SMILES: COc1ccc2c(c1)[C@@]13CCCC[C@H]1[C@@H](C2)NCC3
- PER2::LUC luminescence (time after treatment 24 h): 0.648
- PER2::LUC luminescence (time after treatment 30 h): 0.893

SMILES: CC(=O)N1CC[N+](C)(C)CC1
- PER2::LUC luminescence (time after treatment 24 h): 0.914
- PER2::LUC luminescence (time after treatment 30 h): 0.971

SMILES: COc1cc2c(c(OC)c1OC)-c1ccc(OC)c(=O)cc1[C@@H](NC(C)=O)CC2
- PER2::LUC luminescence (time after treatment 24 h): 0.401 and 1.11
- PER2::LUC luminescence (time after treatment 30 h): 0.493 and 1.06

SMILES: CC[C@@H](CO)NC(=O)[C@@H]1C=C2c3cccc4c3c(cn4C)C[C@H]2N(C)C1
- PER2::LUC luminescence (time after treatment 24 h): 0.933
- PER2::LUC luminescence (time after treatment 30 h): 0.803

SMILES: N#C[C@H](O[C@@H]1O[C@H](CO[C@@H]2O[C@H](CO)[C@@H](O)[C@H](O)[C@H]2O)[C@@H](O)[C@H](O)[C@H]1O)c1ccccc1
- PER2::LUC luminescence (time after treatment 24 h): 0.914
- PER2::LUC luminescence (time after treatment 30 h): 0.91

SMILES: CC(C)C1CNC(C(=O)O)C1CC(=O)O (configuration not stated)
- PER2::LUC luminescence (time after treatment 24 h): 1.11
- PER2::LUC luminescence (time after treatment 30 h): 0.777

SMILES: CC[C@H](C)/C=C(C)/C=C/C1=CC2=C(Cl)C(=O)[C@](C)(OC(C)=O)C(=O)C2=CO1
- PER2::LUC luminescence (time after treatment 24 h): 1.02
- PER2::LUC luminescence (time after treatment 30 h): 1.01

SMILES: C[C@]12CC[C@H](O)CC1=CC[C@@H]1[C@@H]2CC[C@]2(C)C(=O)CC[C@@H]12
- PER2::LUC luminescence (time after treatment 24 h): 0.977 and 0.869
- PER2::LUC luminescence (time after treatment 30 h): 0.882 and 0.925

SMILES: CN(C(=O)/C=C/c1ccoc1)[C@@H]1CC[C@@]2(O)[C@H]3Cc4ccc(O)c5c4[C@@]2(CCN3CC2CC2)[C@H]1O5
- PER2::LUC luminescence (time after treatment 24 h): 0.966
- PER2::LUC luminescence (time after treatment 30 h): 0.901
